Among all 310,000 compounds or so, about 2,200 (0.71%) showed an effect of 50% or more. The effect is printed as a negative number. This is one part of the list.
target: human ether-à-go-go-related gene (hERG) potassium channel (human, UniProt Q12809); experiment: primary screen, population patch clamp on CHO cells stably expressing hERG
Sequence (Q12809 whole entry, looked up): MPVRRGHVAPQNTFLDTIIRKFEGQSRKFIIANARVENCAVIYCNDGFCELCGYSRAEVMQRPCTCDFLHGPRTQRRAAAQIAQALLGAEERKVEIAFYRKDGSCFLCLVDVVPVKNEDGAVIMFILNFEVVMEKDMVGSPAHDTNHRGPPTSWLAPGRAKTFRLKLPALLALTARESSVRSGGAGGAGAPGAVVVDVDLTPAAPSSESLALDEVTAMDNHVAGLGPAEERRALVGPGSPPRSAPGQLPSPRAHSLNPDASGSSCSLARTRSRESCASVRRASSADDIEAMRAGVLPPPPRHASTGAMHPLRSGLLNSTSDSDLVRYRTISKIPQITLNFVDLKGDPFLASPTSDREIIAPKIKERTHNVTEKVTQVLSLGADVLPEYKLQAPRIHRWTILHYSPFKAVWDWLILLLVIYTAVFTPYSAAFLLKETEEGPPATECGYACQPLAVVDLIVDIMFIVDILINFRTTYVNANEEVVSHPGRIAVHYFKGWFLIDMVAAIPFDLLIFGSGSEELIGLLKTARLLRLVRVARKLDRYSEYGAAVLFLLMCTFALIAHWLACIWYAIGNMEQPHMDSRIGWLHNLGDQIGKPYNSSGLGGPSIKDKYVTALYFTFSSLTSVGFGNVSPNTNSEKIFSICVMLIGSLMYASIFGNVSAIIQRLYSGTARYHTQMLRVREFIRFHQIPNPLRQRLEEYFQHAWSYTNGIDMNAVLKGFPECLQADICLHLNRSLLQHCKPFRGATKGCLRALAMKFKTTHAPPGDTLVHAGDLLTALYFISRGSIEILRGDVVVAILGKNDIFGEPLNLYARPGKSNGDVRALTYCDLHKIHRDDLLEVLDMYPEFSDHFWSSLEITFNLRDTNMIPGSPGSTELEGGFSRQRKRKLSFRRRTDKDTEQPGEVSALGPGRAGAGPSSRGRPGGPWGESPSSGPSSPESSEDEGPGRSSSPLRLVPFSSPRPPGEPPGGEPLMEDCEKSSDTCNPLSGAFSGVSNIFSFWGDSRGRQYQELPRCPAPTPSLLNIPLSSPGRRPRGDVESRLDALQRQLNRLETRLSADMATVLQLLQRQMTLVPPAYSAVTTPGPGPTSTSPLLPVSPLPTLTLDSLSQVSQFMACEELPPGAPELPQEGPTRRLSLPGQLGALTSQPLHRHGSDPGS

SMILES | hERG current change (%, negative = inhibition) at 1uM [%]
CCc1ccccc1NC(=O)c1ccc(Cn2cc([N+](=O)[O-])cn2)cc1 | -3.78
CCOC(=O)N1C2=NC(C(=O)OC)=C(C(=O)OC)[C@@H]3N(C)c4ccccc4[C@]23C[C@H]1C(=O)OC | 8.18
CC1CCCCN1C(=O)COC(=O)C1CCN(S(=O)(=O)c2ccc3c(c2)OCCO3)CC1 (stereo not drawn) | 8.87
CN(CC(=O)N1CCCCCC1)S(=O)(=O)c1cccc2cccnc12 | 5.16
O=C(NCc1ccco1)c1cccc(NS(=O)(=O)c2cccc(F)c2)c1 | -0.879
COc1ccc(C2CC3(O)NC(=O)C(C#N)(C3C)C2(C#N)C#N)cc1 (stereo not drawn) | 7.33
COc1cc(OC)cc(C(=O)NCC(=O)OCC(=O)c2cc(OC)ccc2OC)c1 | 6.59
CC1CCc2c(sc(N)c2C(=O)OC(C)C)C1 (stereo not drawn) | -6.81
CC1CCCN(C(=O)CSc2nnc3ccccn23)C1 (stereo not drawn) | 8.63
CC(=O)Nc1nc(SCC(=O)Nc2nnc(C)s2)[nH]c(=O)c1NC(=O)c1cccs1 | 5.04
COc1ccc2oc(C(=O)OC(C)C(=O)Nc3ccc(N4CCOCC4)cc3)c(C)c2c1 (stereo not drawn) | 5.38
CCC(C(=O)NC1CCCC1)N(Cc1ccccc1Cl)C(=O)c1snc(C(N)=O)c1N (stereo not drawn) | 8.96
CC(=O)c1ccc(CC2SC(N)=NC2=O)cc1 (stereo not drawn) | 12
O=C(CCS(=O)(=O)c1ccc(Br)cc1)NCCc1ccc(Cl)cc1 | 11.2
CCCCOCCCNCC(=O)Nc1ccc(S(N)(=O)=O)cc1 | 14.7
O=C(N/N=C/c1ccc([N+](=O)[O-])cc1)c1cc(C2CC2)nc2ccccc12 | 10.7
CCNc1oc(COc2cccc(C)c2)nc1C#N | 8.81
CCc1ccc2oc(=O)cc(CN3CCCCC3)c2c1 | 12.3
O=C(CN1C(=O)NC(c2ccccc2)(c2ccccc2)C1=O)c1c[nH]c2ccccc12 | 11.3
CSc1cc(-c2ccc(Cl)cc2)c(C(=O)NC(C)C)s1 | 7.57
Cc1c(C(C)(C(=O)O)c2c(C)n(C)c3ccccc23)c2ccccc2n1C | 7.93

SMILES | hERG current change (%, negative = inhibition) at 1uM [%]
Cc1cccc(C(=O)OCc2cnc(Cl)s2)c1 | 3.47
COc1cc2c(cc1NC(=O)CN1CCN(S(=O)(=O)c3ccccc3F)CC1)oc1ccccc12 | 10.2
CC(C)(CNC(=O)CO/N=C1/C=C2CCC3C(C(O)C[C@@]4(C)C3CC[C@]4(O)C(=O)CO)[C@@]2(C)CC1)C(O)C(=O)O (stereo partly drawn) | 12.7
CCOC(=O)c1cc(=O)c2ccc(OCc3ccccc3)cc2o1 | 5.96
CS(=O)(=O)N1CCN(c2ccc([N+](=O)[O-])c(N3CCOCC3)c2)CC1 | 17.5
CCN(CC)S(=O)(=O)c1ccc(NC(=O)CN(c2cccc(C)c2)S(C)(=O)=O)cc1 | 14
O=S(=O)(NCC1CCCO1)c1cc(Cl)ccc1Br (stereo not drawn) | 6.78
Cn1ccc(NS(=O)(=O)c2cc(Br)ccc2Br)n1 | 1.58
CCOc1cc2sc(N3CCC(C(=O)NCCCN4CCCC4=O)CC3)nc2cc1Br | -4.54
CC1=C(C(=O)OC2CCCCC2)C(c2ccco2)C2=C(CC(C)(C)CC2=O)N1 (stereo not drawn) | 5.89
COC(=O)c1ccccc1NC(=O)CN1C(=O)CSC1=O | 1.49
CN(Cc1ccccc1)C(=O)c1cccc(N2C(=O)NC3CC2(C)Oc2ccccc23)c1 (stereo not drawn) | 6.79
O=C(COc1ccccc1)NCc1nnc2c3ccccc3c(-c3ccccc3)nn12 | -12.4
O=C(O)CC1S/C(=N/N=C/c2ccc(-c3ccc(Cl)c([N+](=O)[O-])c3)o2)NC1=O (stereo not drawn) | 15.9
CC(=O)c1ccc(Cc2ncc(C(F)(F)F)cc2Cl)s1 | 6.83
CCOC(=O)[C@@H]1[C@H]2COc3cc(OC)ccc3[C@H]2N2C(=O)N(c3ccc(C(F)(F)F)cc3)C(=O)[C@@]12C | 0.102
Cc1cccn2c(CNCCCOc3cccnc3)c(C(=O)N3CCOCC3)nc12 | 0.598
CCCCN(C(=O)C1CC1)C1CCS(=O)(=O)C1 (stereo not drawn) | -3.22
Cc1[nH]c2c(Br)cccc2c1[C@H]1[C@@H](CC#N)C1(C)C | 9.26
O=C(O)CC(Sc1n[nH]c(=S)s1)C(=O)O (stereo not drawn) | 11.5
CC(C(=O)NCc1ccc2c(c1)OCO2)N(c1ccccc1)S(C)(=O)=O (stereo not drawn) | 6.39

SMILES | hERG current change (%, negative = inhibition) at 1uM [%]
Cc1c(NC(=O)c2ccc(Cl)c(S(=O)(=O)N3CCOCC3)c2)c(=O)n(-c2ccccc2)n1C | 13.8
CCn1c(=O)c(C(=O)NCc2ccc3c(c2)OCO3)c(O)c2ccccc21 | 12.6
O=C(N/N=C/c1cccc([N+](=O)[O-])c1)c1ccc2c(c1)OCCO2 | 10.7
CNCc1nc2ccccc2[nH]1.Cl | 14.6
COc1ccc(CCNC(=O)C2CCN(C(=O)c3ccc(C(C)(C)C)cc3)CC2)cc1OC | 14.9
CN(CC(O)Cn1c2ccccc2c2ccccc21)S(C)(=O)=O (stereo not drawn) | 10.5
COc1ccc(NS(=O)(=O)NC(=O)c2c[nH]c3ccccc23)cc1 | 9.58
O=S(=O)(c1ccccc1)N1N=C(c2ccccc2)CC1c1ccco1 (stereo not drawn) | 15.9
Nc1ccc(Cl)c(S(=O)(=O)Nc2cccc(Cl)c2)c1 | 4.24
CC(C)N(C(=O)CN1C(=O)NC(c2ccccc2)(c2ccccc2)C1=O)C(C)C | 9.86
NN(Cc1ccccc1)C(=S)Nc1ccc(Cl)c(Cl)c1 | 12
Cc1nn(Cc2ccccc2)c(Cl)c1/C=C1\NC(=S)NC1=O | 10.6
O=C(c1cc2cc(F)ccc2[nH]1)N1CCc2ccccc21 | 11
Cc1cc(C)nc(SCCCNCc2c(F)cccc2Cl)n1.Cl | 9.75
CC1CCCCN1C(=O)c1ccc(COc2ccc([N+](=O)[O-])cc2)o1 (stereo not drawn) | -18.9
CC(=O)N1CCN(c2ccc([N+](=O)[O-])cc2)CC1 | -26
Cc1ccccc1NC(=S)N(C)CCc1ccccn1 | 13.2
O=C(NCc1ccco1)c1cc(-c2cccnc2)nc2ccc(Cl)cc12 | -1.37
O=C(Nc1cccc2ccccc12)c1cc2c(cc1Br)OCO2 | -1.57
CCN1CCN(c2cc3c(nn2)Oc2ccccc2N3C)CC1 | -6.62
CN1CCCN(C(=O)c2cccc(Cl)c2)CC1 | 7.89

SMILES | hERG current change (%, negative = inhibition) at 1uM [%]
O=S(=O)(Nc1ccc(Cl)cn1)c1cccs1 | 11.9
Cc1ccc(CN2CCN(/N=C/c3ccc(C(F)(F)F)cc3)CC2)c(C)c1 | 4.31
COc1ccc(-c2nc(CS(=O)(=O)CC(=O)NC3CCCCCC3)c(C)o2)cc1 | 8.16
COc1cc2c(cc1OC)C(c1cc3ccccc3oc1=O)=NC(C)(C)C2 | 12.1
O=C(Nc1ccc(N2CCCC2=O)cc1)c1cncc(Br)c1 | 16.5
CC(=O)OCC1O[C@@H](O[C@@H]2C[C@H]3C(C)(C)[C@H](OC(C)=O)CC[C@]3(C)[C@H]3CC[C@]45C[C@]4(CC[C@H]5[C@@H](C)C[C@@H](O)[C@H](O)C(C)(C)O)[C@@]32C)[C@H](O)[C@@H](O)[C@@H]1O (stereo partly drawn) | 11.1
COc1cccc(OC)c1C(=O)NC(=S)N1C[C@H]2C[C@H](C1)c1cccc(=O)n1C2 | -1.32
Cc1cc(NC(=O)c2cc(S(=O)(=O)N3CCCCC3)ccc2C)n(-c2ccccn2)n1 | -2.46
CC1(C)CC[C@]2(C)CC[C@]3(C)C4C[C@@H]5OO[C@@]6(O5)C(CCCC6(C)C)[C@]4(C)CC[C@@]3(C)C2C1 (stereo partly drawn) | 10.8
COc1ccc(C(=O)OCC(=O)NC2CC2)cc1[N+](=O)[O-] | 12.6
O=C(COC(=O)c1ccccc1OC(F)F)Nc1ccc(N2CCCCC2)cc1 | 1.28
COc1cccc(NC(=O)CN(C)C(=O)c2sc3cc(Cl)ccc3c2Cl)c1 | 11
CCC(=O)Nc1cccc(NC(=S)NC(=O)c2cccc(C)c2)c1 | 13.9
COc1ccccc1N1CCN(C(=O)COc2cc(C)ccc2C)CC1 | -7.28
CCN(CC)c1ccc(-c2nc3cnccc3n2C)cc1 | -2.66
CCNC(=S)NNC(=O)c1ccccc1Cl | 15.9
C[C@H](NC(=O)c1nc[nH]c1C(=O)N[C@@H](CCCC[NH3+])C(=O)OC(C)(C)C)C(=O)OC(C)(C)C.[Cl-] | 9.38
COc1ccc(CCNS(=O)(=O)c2cn(C)nc2C)cc1OC | 11.3
O=C(CSc1nc(-c2ccc(F)cc2)cs1)N1CCc2ccccc21 | 11
CCOC(=O)c1sc2ccccc2c1OC(=O)c1ccc(C)cc1 | 8.48
CCOC(=O)c1nc(Nc2ccc(C(=O)OC)cc2)c2ccccc2n1 | 8.79

From PMC4336329 (PLoS ONE, 2015)
